The list shows a part of the results. The data describe in vitro nicking of single-stranded DNA by Rep domains (1 h at 37 °C, 3 µM enzyme); the outer parts of the 90-letter strands are left off. The score is log2 (uncut reads / reads without enzyme); more negative means more cut, near 0 not cut, and no call is made. Counts are relative to all reads, so uncut sequences can rise above 0 when many others are cut.
What follows are sequences tested on T1, Rep nickase domain of tomato golden mosaic virus (assay: uncleaved DNA left, log2 of reads against the no-enzyme library (log2 ratio); higher = less cleavage (more negative = more Rep cleavage of the k-mer); sequences stand for … in CTCGTCCG…ACCGGAGA).
T1 sequence (Rep 1-124, printed without the tag): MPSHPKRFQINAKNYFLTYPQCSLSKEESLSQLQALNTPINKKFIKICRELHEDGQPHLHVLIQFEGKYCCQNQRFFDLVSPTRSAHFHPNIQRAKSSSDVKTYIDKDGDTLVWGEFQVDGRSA
Description: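 A pool of 90-nt single-stranded DNAs with seven random bases just before the constant AC of the nick site (name = the seven bases) was cut by 3 µM recombinant His6-SUMO-tagged Rep nickase domain (300 nM DNA, 50 mM HEPES pH 8.0, 50 mM NaCl, 1 mM MnCl2, 1 h, 37 °C, three replicates). Uncut DNA was amplified and sequenced.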
With TTACCGC the “uncleaved DNA left (log2)” value was 0.0314. With TTTAAGG the “uncleaved DNA left (log2)” value was 0.176. TGCTCCA was tested, and the “uncleaved DNA left (log2)” value was -0.0208. For GTTACTT, the “uncleaved DNA left (log2)” value was 0.0417. In the case of TAGTCTT, the “uncleaved DNA left (log2)” value is reported as -1.7. CTGACAC was tested, and the “uncleaved DNA left (log2)” value was -0.11. GGAAACG was tested, and the “uncleaved DNA left (log2)” value was -0.0168. In the case of GCTACCG, the “uncleaved DNA left (log2)” value is reported as 0.033. With GTGACTG the “uncleaved DNA left (log2)” value was 0.0368. With ATCTAGC the “uncleaved DNA left (log2)” value was -0.0237. GGTTAAT was tested, and the “uncleaved DNA left (log2)” value was -0.0105. GCAGATG was tested, and the “uncleaved DNA left (log2)” value was 0.224. CACCATA was tested, and the “uncleaved DNA left (log2)” value was -0.0888. In the case of AACGGGG, the “uncleaved DNA left (log2)” value is reported as 0.19. In the case of CACGGGT, the “uncleaved DNA left (log2)” value is reported as -0.0258. With GCCGCAT the “uncleaved DNA left (log2)” value was -0.137. In the case of TGGGCGA, the “uncleaved DNA left (log2)” value is reported as 0.136. CCTCACC was tested, and the “uncleaved DNA left (log2)” value was -0.0648. With GCCGGAC the “uncleaved DNA left (log2)” value was 0.124. TTTCTCC was tested, and the “uncleaved DNA left (log2)” value was -0.162. In the case of TCAACTC, the “uncleaved DNA left (log2)” value is reported as -0.205. In the case of ACGTTTA, the “uncleaved DNA left (log2)” value is reported as -0.0216. In the case of ATCTGAA, the “uncleaved DNA left (log2)” value is reported as 0.169. With CTCCTCT the “uncleaved DNA left (log2)” value was -0.108. For AATTATG, the “uncleaved DNA left (log2)” value was 0.00927. For CATTTAA, the “uncleaved DNA left (log2)” value was 0.0496. With TTAAGTG the “uncleaved DNA left (log2)” value was -0.0481. With AAACCCA the “uncleaved DNA left (log2)” value was 0.202. In the case of AAATGAG, the “uncleaved DNA left (log2)” value is reported as 0.103. For ATCGTCG, the “uncleaved DNA left (log2)” value was -0.246. ACGAAGT was tested, and the “uncleaved DNA left (log2)” value was -0.091. For ACGCCCA, the “uncleaved DNA left (log2)” value was 0.0264. In the case of AGTGGTT, the “uncleaved DNA left (log2)” value is reported as 0.181. In the case of TGGTAGT, the “uncleaved DNA left (log2)” value is reported as 0.0544. For CCCTCCG, the “uncleaved DNA left (log2)” value was -0.0275. In the case of ACATTAA, the “uncleaved DNA left (log2)” value is reported as -0.0466. With GAATAAC the “uncleaved DNA left (log2)” value was 0.0125. With ATACCCC the “uncleaved DNA left (log2)” value was 0.0152. With TTCGTGA the “uncleaved DNA left (log2)” value was 0.158. In the case of TCGGGTA, the “uncleaved DNA left (log2)” value is reported as 0.0288.
